Publication PMC5201011 (2016)
Results are given in words; binding and its absence hold for the method and conditions named. Binding seen in cells or lysates may run through a third protein. Some entries that bind do so weakly or less than the wild type. Sequences can lack the tags named with a protein.

Assays:
[1] = biological target: T1, FLAG–Rab40b (UniProt Q12829); experiment: co-IP; lysates of MDA-MB-231 cells stably expressing FLAG–Rab40b, incubated in the absence or presence of GTPγS; anti-FLAG immunoprecipitation, anti-Tks5 immunoblot; non-specific mouse IgG as control
T1 sequence: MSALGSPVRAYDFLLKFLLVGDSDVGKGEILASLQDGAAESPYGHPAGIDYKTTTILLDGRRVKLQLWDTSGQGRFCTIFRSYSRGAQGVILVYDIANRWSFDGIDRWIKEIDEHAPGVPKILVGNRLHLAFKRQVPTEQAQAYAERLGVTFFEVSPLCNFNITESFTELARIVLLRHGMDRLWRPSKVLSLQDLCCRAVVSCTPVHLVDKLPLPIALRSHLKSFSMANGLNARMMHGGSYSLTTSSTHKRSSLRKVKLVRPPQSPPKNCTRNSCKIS

[2] = biological target: T2, GST–Tks5-PX (UniProt Q5TCZ1); experiment: pull-down; GST–Tks5-PX-coated glutathione beads incubated with MDA-MB-231 lysates in the presence or absence of GTPγS; anti-FLAG blot; only the target purified
T2 sequence: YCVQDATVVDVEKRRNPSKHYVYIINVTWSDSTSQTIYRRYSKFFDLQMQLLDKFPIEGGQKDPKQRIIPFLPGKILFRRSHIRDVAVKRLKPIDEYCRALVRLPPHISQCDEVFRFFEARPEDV

[3] = biological target: T3, GST–Tks5 SH3-1 domain (UniProt Q5TCZ1); experiment: pull-down; 10 µg GST–Tks5 fragment with 1% Triton X-100 lysate of MDA-MB-231 cells stably expressing FLAG–Rab40b; glutathione–Sepharose beads; washed in 20 mM Hepes pH 7.4, 150 mM NaCl, 1 mM MgCl2, 0.1% Triton X-100; anti-FLAG blot; only the target purified
T3 sequence: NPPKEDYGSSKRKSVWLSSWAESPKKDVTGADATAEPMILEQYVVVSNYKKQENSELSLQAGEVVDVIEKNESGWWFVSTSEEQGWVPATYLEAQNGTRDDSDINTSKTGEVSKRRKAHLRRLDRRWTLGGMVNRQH

[4] = biological target: T4, GST–Tks5 SH3-4 domain (UniProt Q5TCZ1); experiment: as above
T4 sequence: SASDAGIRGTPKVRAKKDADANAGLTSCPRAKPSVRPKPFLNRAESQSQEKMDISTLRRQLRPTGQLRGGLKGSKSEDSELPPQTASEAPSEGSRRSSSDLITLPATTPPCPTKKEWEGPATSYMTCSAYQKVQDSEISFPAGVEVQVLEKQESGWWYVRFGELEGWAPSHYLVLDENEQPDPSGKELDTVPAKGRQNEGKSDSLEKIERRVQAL

[5] = biological target: T2, GST–Tks5-PX; experiment: as above
[6] = biological target: T5, GST–Tks5-PX I27A (UniProt Q5TCZ1); experiment: as above
T5 sequence: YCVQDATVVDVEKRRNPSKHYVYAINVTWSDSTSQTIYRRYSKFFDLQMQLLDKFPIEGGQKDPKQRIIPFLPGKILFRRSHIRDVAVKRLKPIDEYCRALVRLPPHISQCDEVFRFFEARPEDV

B1: Tks5 (tyrosine kinase substrate 5) (protein, UniProt Q5TCZ1 1-1133)
chain: MLAYCVQDATVVDVEKRRNPSKHYVYIINVTWSDSTSQTIYRRYSKFFDLQMQLLDKFPIEGGQKDPKQRIIPFLPGKILFRRSHIRDVAVKRLKPIDEYCRALVRLPPHISQCDEVFRFFEARPEDVNPPKEDYGSSKRKSVWLSSWAESPKKDVTGADATAEPMILEQYVVVSNYKKQENSELSLQAGEVVDVIEKNESGWWFVSTSEEQGWVPATYLEAQNGTRDDSDINTSKTGEVSKRRKAHLRRLDRRWTLGGMVNRQHSREEKYVTVQPYTSQSKDEIGFEKGVTVEVIRKNLEGWWYIRYLGKEGWAPASYLKKAKDDLPTRKKNLAGPVEIIGNIMEISNLLNKKASGDKETPPAEGEGHEAPIAKKEISLPILCNASNGSAVGVPDRTVSRLAQGSPAVARIAPQRAQISSPNLRTRPPPRRESSLGFQLPKPPEPPSVEVEYYTIAEFQSCISDGISFRGGQKAEVIDKNSGGWWYVQIGEKEGWAPASYIDKRKKPNLSRRTSTLTRPKVPPPAPPSKPKEAEEGPTGASESQDSPRKLKYEEPEYDIPAFGFDSEPELSEEPVEDRASGERRPAQPHRPSPASSLQRARFKVGESSEDVALEEETIYENEGFRPYAEDTLSARGSSGDSDSPGSSSLSLTRKNSPKSGSPKSSSLLKLKAEKNAQAEMGKNHSSASFSSSITINTTCCSSSSSSSSSLSKTSGDLKPRSASDAGIRGTPKVRAKKDADANAGLTSCPRAKPSVRPKPFLNRAESQSQEKMDISTLRRQLRPTGQLRGGLKGSKSEDSELPPQTASEAPSEGSRRSSSDLITLPATTPPCPTKKEWEGPATSYMTCSAYQKVQDSEISFPAGVEVQVLEKQESGWWYVRFGELEGWAPSHYLVLDENEQPDPSGKELDTVPAKGRQNEGKSDSLEKIERRVQALNTVNQSKKATPPIPSKPPGGFGKTSGTPAVKMRNGVRQVAVRPQSVFVSPPPKDNNLSCALRRNESLTATDGLRGVRRNSSFSTARSAAAEAKGRLAERAASQGSDSPLLPAQRNSIPVSPVRPKPIEKSQFIHNNLKDVYVSIADYEGDEETAGFQEGVSMEVLERNPNGWWYCQILDGVKPFKGWVPSNYLEKKN
binding [1]: binds

B2: FLAG–Rab40b (protein, UniProt Q12829 1-278)
chain: MSALGSPVRAYDFLLKFLLVGDSDVGKGEILASLQDGAAESPYGHPAGIDYKTTTILLDGRRVKLQLWDTSGQGRFCTIFRSYSRGAQGVILVYDIANRWSFDGIDRWIKEIDEHAPGVPKILVGNRLHLAFKRQVPTEQAQAYAERLGVTFFEVSPLCNFNITESFTELARIVLLRHGMDRLWRPSKVLSLQDLCCRAVVSCTPVHLVDKLPLPIALRSHLKSFSMANGLNARMMHGGSYSLTTSSTHKRSSLRKVKLVRPPQSPPKNCTRNSCKIS
binding [2]: binds | binding [3]: no binding (tested: 10 µg GST–Tks5 fragment) | binding [4]: no binding (tested: 10 µg GST–Tks5 fragment) | binding [5]: binds | binding [6]: binds
